Target: the molecule itself
Test: gel filtration; self-association

B1: Glutathione S-transferase (GST) of Schistosoma japonicum (enzyme)
chain: not shown
notes: Released from GST fusion proteins by thrombin; ~26 kDa monomer, found as a ~52 kDa dimer by gel filtration; also called free GST
  binding result: binds
